# Measurements published in PubChem BioAssay AID1347073 (National Center for Advancing Translational Sciences (NCATS), 2019).
# Screen size: about 45,000 compounds; about 200 (0.44%) were called active. The shares of active, inactive and inconclusive entries below differ from those in the screen. Calls come from the whole dose curve; as a rule, active = well fitted activation curve with a large enough effect; inconclusive = small, poorly fitted or top-dose-only effect; inactive = no such curve, though single readings can be large or run the other way. A potency beside an inconclusive call is a rough fit, not a confirmed value.
# Experiment: qHTS of TDP-43 Inhibitors: NCGC Sytravon Library Screen; note: nearly all actives have a fitted effect of over 55% in size; for growth rescue (activation): 0% is about no effect
# Conditions: yeast TDP-43 toxicity rescue, BacTiter-Glo growth, 24 h; growth rescue (activation): at 46.1 µM (top of the series)
# Summary of the method: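 TDP-43-expressing yeast, pregrown in raffinose, seeded at OD600 0.02 in galactose medium with compound for 24 hr at 30 deg C. Growth read by BacTiter-Glo luminescence, so rescue of toxicity appears as activation.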
# Potency is the fitted concentration of half-maximal effect; tags give direction and shape of the fitted curve.
Structure (SMILES),Potency,growth rescue (activation)
O=C(NC1CCCCC1)C(c1ccccn1)N(C(=O)c1csnn1)c1ccccc1F (stereo unspecified),inactive,
COc1cccc(C(NC(C)=O)c2nc(-c3ccc(C)c(C)c3)cs2)c1 (stereo unspecified),"inconclusive: 35.5 µM [activator, single point]",
COc1ccccc1NC(=S)N1CCc2cc(OC)c(OC)cc2C1,"inconclusive: 17.8 µM [activator, single point]",
Cc1ccc(C(C)C)c(OCc2ccc(C(=O)N/N=C/c3ccc(O)cc3O)cc2)c1,"inconclusive: 11.2 µM [activator, partial curve, poor fit]",
COc1cc(C(O)c2nc(-c3cccc(F)c3)cs2)ccc1F (stereo unspecified),,inconclusive: 121% [activator]
CSc1cccc(NC(=O)c2cccc3cccnc23)c1,"inconclusive: 12.6 µM [activator, partial curve, poor fit]",
CCOc1ccccc1NC(=O)Cc1coc2ccc(C)cc12,"inconclusive: 11.2 µM [activator, partial curve]",
CC1(C(=O)NS(=O)(=O)c2cccc(Cl)c2)CCN1C(=O)CC1CC1 (stereo unspecified),inactive,
Cc1ccc(S(=O)(=O)CCC(=O)OCc2nnc(-c3ccccc3)o2)cc1,inactive,
COc1ccc(N(CCCN2C(=O)c3cccc4cccc(c34)C2=O)C(=O)c2cccc(OC)c2)cc1,inactive,
Cc1ccc(-c2nnc(CCC(=O)NCC3C4CC5CC(C4)CC3C5)o2)s1 (stereo unspecified),"inconclusive: 20 µM [activator, single point]",
CCOC(=O)c1c(-c2ccccc2)csc1NC(=O)CSc1nncs1,"inconclusive: 22.4 µM [activator, single point]",
Cc1cccc(CS(=O)(=O)c2ncc(Cl)c(C(=O)Nc3nnc(C(C)C)s3)n2)c1,"inconclusive: 10 µM [activator, partial curve, poor fit]",
CCc1cc(SC#N)cc(CC)c1NC(=O)CCl,"inconclusive: 12.6 µM [activator, partial curve, poor fit]",
CCCCOc1ccc(OCCNC(=O)c2ccco2)cc1,"inconclusive: 22.4 µM [activator, partial curve, poor fit]",
OC(c1ccccc1)c1nc(-c2csc3ccccc23)cs1 (stereo unspecified),,inconclusive: 123% [activator]
CCc1ccccc1NC(=O)N1CCCn2nc(C)cc21,inactive,
O=C(CCNC(=O)c1ccccc1Cl)Nc1nc(-c2ccccc2Cl)cs1,"inconclusive: 20 µM [activator, single point]",
COc1ccc(CN2C(=O)CC(Cc3ccc(C)cc3)C2=O)cc1OC (stereo unspecified),"inconclusive: 8.91 µM [activator, partial curve, poor fit]",
O=C(c1cccc(C(=O)N2CCc3ccccc32)n1)N1CCc2ccccc21,"inconclusive: 25.1 µM [activator, single point]",
CC(O)(c1cccc(F)c1)c1nc(-c2cnc3ccccc3c2)cs1 (stereo unspecified),,inconclusive: 94.6% [activator]
CSc1cccc(NC(=S)N2CCC(c3ccccc3)C2)c1 (stereo unspecified),"inconclusive: 12.6 µM [activator, single point]",

Structure (SMILES),Potency,growth rescue (activation)
CCCN1C(=O)c2cc(C(=O)Nc3ccccc3C)ccc2C1Nc1ccccc1C (stereo unspecified),"inconclusive: 20 µM [activator, single point]",
CNC(=O)c1ccc2c(c1)N(Cc1cc(C)ccc1C)C(=O)c1ccccc1S2,"inconclusive: 31.6 µM [activator, single point]",
O=C(N1CCN(c2ccccc2F)CC1)C1(S(=O)(=O)c2ccc(Cl)cc2)CC1,"inconclusive: 35.5 µM [activator, single point]",
Cc1cc(OC(C)C(=O)N(Cc2ccc(N(C)C)cc2)Cc2ccco2)ccc1Cl (stereo unspecified),"inconclusive: 15.8 µM [activator, single point]",
COc1cccc(C2N(Cc3ccccc3)C(=O)C2(F)F)c1OC (stereo unspecified),inactive,
CCc1ccccc1OCC(=O)NCC1COc2ccccc2O1 (stereo unspecified),,inconclusive: 36.9% [activator]
CCN(CC)S(=O)(=O)c1ccc2c(c1)N(CC(=O)NCCc1ccccc1)C(=O)CO2,inactive,
COc1ccc(C(O)c2nc(-c3ccc(N(C)C)cc3)cs2)cc1 (stereo unspecified),,inconclusive: 40.1% [activator]
Cc1cc(C(=S)N2CCOCC2)c(C)n1-c1ccc(Cl)cc1,"inconclusive: 35.5 µM [activator, single point]",
O=S(=O)(Cc1ccccc1Cl)NCCc1ccccc1,"inconclusive: 12.6 µM [activator, single point]",
O=C(CCCN1C(=O)c2ccccc2C1=O)Nc1nc2ccccc2[nH]1,"inconclusive: 35.5 µM [activator, partial curve, poor fit]",
CCN(CC)C(=O)c1cccc(-c2csc(C(O)(c3ccccc3)C(F)(F)F)n2)c1 (stereo unspecified),,inconclusive: 63.3% [activator]
Cc1ccc(C(=O)Nc2ncc(C)s2)s1,"inconclusive: 8.91 µM [activator, partial curve, poor fit]",
CCOC(=O)c1c(C)c(C(=O)N2CCN(c3ccccc3)CC2)c(C)n1C,"inconclusive: 12.6 µM [activator, partial curve, poor fit]",
Cc1cc(C)c2oc(-c3ccc(NC(=O)COc4ccccc4C)cc3)nc2c1,inactive,
COc1cc(C(=O)Nc2ccc(Cl)c(C(F)(F)F)c2)cc(OC)c1OC,"inconclusive: 25.1 µM [activator, single point]",
COc1cccc(OCc2nc(-c3cccc([N+](=O)[O-])c3)no2)c1,"inconclusive: 11.2 µM [activator, single point]",
Oc1cc2c(cc1C(c1ccc(Cl)c(Cl)c1)N1CCCC1)OCO2 (stereo unspecified),"inconclusive: 10 µM [activator, partial curve, poor fit]",
N/C(=N\C(=S)Nc1ccccc1)c1ccccc1,"inconclusive: 14.1 µM [activator, partial curve, poor fit]",
CCc1ccc2occ(CC(=O)Nc3ccc(OC)c(Cl)c3)c2c1,"inconclusive: 22.4 µM [activator, partial curve, poor fit]",
O=C(O)c1sccc1SCc1ccc(Cl)cc1Cl,"inconclusive: 12.6 µM [activator, single point]",
CN(C(=O)c1ccc2c(=O)n3c(nc2c1)CCCCC3)c1ccccc1Cl,"inconclusive: 11.2 µM [activator, partial curve, poor fit]",

Structure (SMILES),Potency,growth rescue (activation)
Cc1ccccc1Nc1nc(N)c(C(=O)c2ccccc2Cl)s1,"inconclusive: 20 µM [activator, single point]",
CC1CCCCC1NC(=O)NC(=O)CCl (stereo unspecified),"inconclusive: 14.1 µM [activator, single point]",
CCOc1c(C=C(C#N)C#N)c2ccccc2n1CC,"inconclusive: 11.2 µM [activator, partial curve, poor fit]",
CNC(=S)Nc1ccc(C23CC4CC(CC(C4)C2)C3)cc1,"inconclusive: 12.6 µM [activator, partial curve, poor fit]",
O=C(Nc1ccc2c(c1)OCCO2)C1CC1c1ccccc1 (stereo unspecified),"inconclusive: 25.1 µM [activator, partial curve, poor fit]",
CCOC(=O)C(NCc1ccc(OC)cc1)(NC(C)=O)C(F)(F)F (stereo unspecified),inactive,
O=C(/C=C/c1ccc(Cl)cc1)NCCc1ccccc1,"inconclusive: 8.91 µM [activator, partial curve, poor fit]",
CCCCCCOc1ccc(C(=O)O)cc1C#N,"inconclusive: 14.1 µM [activator, partial curve, poor fit]",
Cc1cccc(OCCSc2cc(C)nc(N)n2)c1,"inconclusive: 15.8 µM [activator, single point]",
Cc1cc(C)nc(N(C#N)Cc2ccc([N+](=O)[O-])cc2)n1,"inconclusive: 17.8 µM [activator, partial curve, poor fit]",
COc1ccc(C(=O)Nc2ccccc2C(=O)N2CCN(c3ccccc3)CC2)cc1,"inconclusive: 15.8 µM [activator, partial curve, poor fit]",
CNC(=O)NC(=O)COC(=O)CCCSc1nc2ccccc2s1,"inconclusive: 22.4 µM [activator, single point]",
Cc1ccc(NC(=O)CCCc2nc3ccccc3s2)c(O)c1,"inconclusive: 12.6 µM [activator, partial curve, poor fit]",
COc1ccccc1C(=O)OCc1c(F)cccc1Cl,"inconclusive: 11.2 µM [activator, partial curve, poor fit]",
CCN=c1scc(-c2ccccc2)n1/N=C/c1ccccn1,"inconclusive: 17.8 µM [activator, single point]",
O=C(Nc1nnc([C@@H]2C[C@H](O)[C@@H](CO)O2)s1)Nc1cccc(Cl)c1Cl,inactive,
COc1ccc(OCc2cc(C(=O)NCc3nc(C)cs3)no2)c(Cl)c1,"inconclusive: 6.31 µM [activator, partial curve, poor fit]",
O=C(CSc1nnc(-c2ccco2)c(-c2ccco2)n1)Nc1ccccc1,"inconclusive: 20 µM [activator, single point]",
COCc1cccc(-c2csc(C(O)c3ccc(F)c(OC)c3)n2)c1 (stereo unspecified),,inconclusive: 31.6% [activator]
COC(=O)c1c(NC(=O)CN2CCC3(O)CCCCC3C2c2cc(OC)ccc2OC)sc(C)c1C (stereo unspecified),"inconclusive: 15.8 µM [activator, single point]",
Cc1ccc(CN(C(=O)COc2ccc(Cl)cc2Cl)C2CCS(=O)(=O)C2)o1 (stereo unspecified),inactive,
CCn1c(=S)sc2c(=O)n(-c3ccccc3)c(=S)[nH]c21,"inconclusive: 15.8 µM [activator, single point]",
